These are yes or no findings as the source states them, for the method shown. For some assays here: Binding seen in cells or lysates may run through a third protein. Some entries that bind do so weakly or less than the wild type. For some assays here: Sequences can lack the tags named with a protein.
Experiments:
[1] = target: T1, KDELR1-Cub-LexA-VP16 (human) (UniProt P24390); assay: two-hybrid; split-ubiquitin membrane yeast two-hybrid (MYTH), NMY51 yeast; KDELR1-Cub-LexA-VP16 bait, NubG-HA preys; growth on QDO plates with X-α-Gal
T1 sequence: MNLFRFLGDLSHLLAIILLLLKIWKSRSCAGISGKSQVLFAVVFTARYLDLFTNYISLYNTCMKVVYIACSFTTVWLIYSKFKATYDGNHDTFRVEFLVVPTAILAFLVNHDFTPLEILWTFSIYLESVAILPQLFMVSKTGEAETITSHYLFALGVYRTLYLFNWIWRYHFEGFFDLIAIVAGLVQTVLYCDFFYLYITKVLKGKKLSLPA

The chains behind the UniProt entries cited, without tags or fusion partners. Where a name states a change or a piece, a line headed by the entry shows the natural chain unless it says otherwise.
UniProt Q8N6T3: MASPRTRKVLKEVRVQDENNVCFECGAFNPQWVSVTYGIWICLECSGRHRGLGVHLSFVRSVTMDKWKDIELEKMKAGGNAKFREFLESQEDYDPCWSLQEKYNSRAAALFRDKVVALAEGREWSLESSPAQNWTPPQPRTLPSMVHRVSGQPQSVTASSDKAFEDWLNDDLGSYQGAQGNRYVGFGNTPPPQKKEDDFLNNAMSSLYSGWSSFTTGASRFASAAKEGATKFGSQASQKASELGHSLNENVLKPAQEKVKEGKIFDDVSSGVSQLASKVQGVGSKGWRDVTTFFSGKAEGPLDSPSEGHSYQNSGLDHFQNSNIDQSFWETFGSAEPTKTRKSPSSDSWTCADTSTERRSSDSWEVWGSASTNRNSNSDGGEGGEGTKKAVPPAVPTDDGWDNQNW
UniProt Q9NP61: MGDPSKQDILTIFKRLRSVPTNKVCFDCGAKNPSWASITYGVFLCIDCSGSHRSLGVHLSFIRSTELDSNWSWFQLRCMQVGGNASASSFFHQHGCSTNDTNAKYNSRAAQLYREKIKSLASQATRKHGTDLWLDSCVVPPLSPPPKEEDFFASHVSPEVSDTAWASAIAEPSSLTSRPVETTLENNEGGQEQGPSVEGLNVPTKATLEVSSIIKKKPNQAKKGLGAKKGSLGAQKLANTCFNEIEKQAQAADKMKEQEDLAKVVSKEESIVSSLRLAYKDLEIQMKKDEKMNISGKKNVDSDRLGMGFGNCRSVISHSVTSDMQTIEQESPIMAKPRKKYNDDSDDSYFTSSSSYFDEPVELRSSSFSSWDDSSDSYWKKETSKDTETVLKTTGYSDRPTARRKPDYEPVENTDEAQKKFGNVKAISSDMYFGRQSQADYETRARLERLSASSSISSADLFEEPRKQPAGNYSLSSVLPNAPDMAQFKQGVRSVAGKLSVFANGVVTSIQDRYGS
UniProt P13861: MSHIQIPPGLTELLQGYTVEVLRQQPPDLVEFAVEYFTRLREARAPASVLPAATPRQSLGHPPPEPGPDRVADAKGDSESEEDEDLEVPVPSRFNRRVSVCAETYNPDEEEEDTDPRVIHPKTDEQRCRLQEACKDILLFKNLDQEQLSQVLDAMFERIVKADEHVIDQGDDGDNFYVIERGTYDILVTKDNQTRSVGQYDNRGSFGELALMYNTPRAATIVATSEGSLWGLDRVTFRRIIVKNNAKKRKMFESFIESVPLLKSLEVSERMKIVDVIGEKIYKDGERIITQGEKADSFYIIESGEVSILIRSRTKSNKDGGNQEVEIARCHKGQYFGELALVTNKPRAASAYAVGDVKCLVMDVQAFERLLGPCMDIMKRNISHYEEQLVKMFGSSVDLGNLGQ
UniProt Q9H3P7: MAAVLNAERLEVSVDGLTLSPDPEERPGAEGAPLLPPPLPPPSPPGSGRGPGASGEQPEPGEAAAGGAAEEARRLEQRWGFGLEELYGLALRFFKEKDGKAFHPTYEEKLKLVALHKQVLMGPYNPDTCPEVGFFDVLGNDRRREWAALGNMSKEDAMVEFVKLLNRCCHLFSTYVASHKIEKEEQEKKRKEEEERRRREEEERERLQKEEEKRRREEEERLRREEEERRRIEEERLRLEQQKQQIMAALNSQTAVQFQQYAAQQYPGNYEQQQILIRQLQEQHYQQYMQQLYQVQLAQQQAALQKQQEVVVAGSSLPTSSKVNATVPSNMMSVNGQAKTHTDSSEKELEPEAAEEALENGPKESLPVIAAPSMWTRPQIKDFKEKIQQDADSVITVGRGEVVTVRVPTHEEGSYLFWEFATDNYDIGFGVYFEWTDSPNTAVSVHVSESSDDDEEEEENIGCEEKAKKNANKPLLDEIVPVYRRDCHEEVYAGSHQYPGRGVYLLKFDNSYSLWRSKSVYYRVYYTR
UniProt P84077: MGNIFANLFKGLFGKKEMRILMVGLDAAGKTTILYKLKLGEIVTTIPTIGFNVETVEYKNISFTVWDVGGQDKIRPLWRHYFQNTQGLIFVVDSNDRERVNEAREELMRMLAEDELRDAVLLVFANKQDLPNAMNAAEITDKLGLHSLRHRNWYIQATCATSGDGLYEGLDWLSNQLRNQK
UniProt Q8N6H7: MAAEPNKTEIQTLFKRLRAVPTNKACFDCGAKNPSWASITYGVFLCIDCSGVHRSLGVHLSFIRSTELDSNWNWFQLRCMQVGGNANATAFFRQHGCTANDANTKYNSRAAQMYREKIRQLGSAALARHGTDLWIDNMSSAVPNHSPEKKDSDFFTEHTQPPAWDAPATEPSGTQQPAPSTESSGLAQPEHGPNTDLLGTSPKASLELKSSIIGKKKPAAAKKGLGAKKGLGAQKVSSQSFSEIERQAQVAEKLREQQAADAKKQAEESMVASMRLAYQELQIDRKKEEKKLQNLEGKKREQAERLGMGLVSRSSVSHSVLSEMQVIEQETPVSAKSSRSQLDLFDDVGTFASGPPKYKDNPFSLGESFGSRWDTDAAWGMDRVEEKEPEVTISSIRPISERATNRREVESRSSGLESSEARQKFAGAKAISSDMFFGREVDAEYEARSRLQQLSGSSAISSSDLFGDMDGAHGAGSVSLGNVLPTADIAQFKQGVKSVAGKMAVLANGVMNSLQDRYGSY

KDELR1-mCherry (human) [2] = target: T2, KDELR1-mCherry (human) (UniProt P24390); assay: co-IP; anti-RFP agarose beads, 4 h at 4°C, on lysates (20 mM HEPES pH 7.4, 100 mM NaCl, 2 mM DDM + 0.02% CHS) of HeLa cells with KDELR1-mCherry or endogenously tagged KDELR1-3xFlag-mCherry; western blot; also done with ACBD3-depleted, ACBD3-KO and ACBD3 over-expressing cells
T2 sequence: T1 sequence

KDELR1-myc-cYFP (human) = target: T3, KDELR1-myc-cYFP (human) (UniProt P24390); assay: split reporter; split-YFP: nYFP-3xFLAG-ACBD3 and KDELR1-myc-cYFP co-transfected into HeLa for 18 h, confocal microscopy; single plasmids as negative controls
T3 sequence: T1 sequence

ArfGAP1-myc (human) = ArfGAP1-myc (human) (UniProt Q8N6T3); assay: co-IP; myc-trap agarose beads on lysates of HeLa co-transfected with KDELR1-mCherry and myc-ACBD3, ARFGAP1-myc or ARFGAP3-myc; western blot
ArfGAP3-myc (human) = ArfGAP3-myc (human) (UniProt Q9NP61); assay: as above
PKA-RIIα-EGFP = PKA-RIIα-EGFP (UniProt P13861); assay: co-IP; PKA subunits fused to EGFP expressed in HeLa; ACBD3 detected in the precipitates; beads not named for this experiment (anti-GFP agarose beads are listed in the methods)
KDELR1-mCherry (human) [3] = target: T2, KDELR1-mCherry (human); assay: co-IP; HeLa co-transfected with KDELR1-mCherry and hGH-GFP-myc or hGH-GFP-myc-KDEL, treated with DSP crosslinker (2 mM) in PBS at 37 °C for 30 min before lysis; anti-RFP agarose beads; western blot
myc-ACBD3 (human) = myc-ACBD3 (human) (UniProt Q9H3P7); assay: co-IP; myc-trap agarose beads on lysates of HeLa co-transfected with KDELR1-mCherry and myc-ACBD3, ARFGAP1-myc or ARFGAP3-myc; western blot

Substance	binding [1]	binding (KDELR1-mCherry (human) [2])	binding (KDELR1-mCherry (human) [3])	further results
NubG-HA-ACBD3 (from UniProt Q9H3P7 1-528)	binds	–	–	–
FLAG-ACBD3 FL (from UniProt Q9H3P7 1-528)	–	binds	–	–
nYFP-3xFLAG-ACBD3 (from UniProt Q9H3P7 1-528)	–	–	–	binding (KDELR1-myc-cYFP (human)): binds
NubG-HA-ARFGAP1 (from UniProt Q8N6T3 1-406)	binds	–	–	–
FLAG-GOLD domain (from UniProt Q9H3P7 384-526) (domain or fragment)	–	binds	–	–
ACBD3 (endogenous) (from UniProt Q9H3P7 1-528)	–	binds	binds	binding (ArfGAP1-myc (human)): no binding; binding (ArfGAP3-myc (human)): no binding; binding (PKA-RIIα-EGFP): binds
ArfGAP3 (endogenous) (from UniProt Q9NP61 1-516)	–	binds	binds	binding (myc-ACBD3 (human)): no binding
Arf1 (endogenous) (from UniProt P84077 1-181)	–	binds	binds	binding (ArfGAP1-myc (human)): binds; binding (ArfGAP3-myc (human)): no binding; binding (myc-ACBD3 (human)): no binding
NubG-HA-ARFGAP2 (from UniProt Q8N6H7 1-521)	no binding	–	–	–
ArfGAP1 (endogenous) (from UniProt Q8N6T3 1-406)	–	binds	binds	binding (myc-ACBD3 (human)): no binding
NubG-HA-ARFGAP3 (from UniProt Q9NP61 1-516)	binds	–	–	–
